Whole data set: some 33,000 sequences, median “E-score (-0.5 to 0.5)” near -0.041, cut for the highest 2% near 0.37. Some of the results follow.
Target: T1, Ecm22 (UniProt Q05958)
T1 sequence: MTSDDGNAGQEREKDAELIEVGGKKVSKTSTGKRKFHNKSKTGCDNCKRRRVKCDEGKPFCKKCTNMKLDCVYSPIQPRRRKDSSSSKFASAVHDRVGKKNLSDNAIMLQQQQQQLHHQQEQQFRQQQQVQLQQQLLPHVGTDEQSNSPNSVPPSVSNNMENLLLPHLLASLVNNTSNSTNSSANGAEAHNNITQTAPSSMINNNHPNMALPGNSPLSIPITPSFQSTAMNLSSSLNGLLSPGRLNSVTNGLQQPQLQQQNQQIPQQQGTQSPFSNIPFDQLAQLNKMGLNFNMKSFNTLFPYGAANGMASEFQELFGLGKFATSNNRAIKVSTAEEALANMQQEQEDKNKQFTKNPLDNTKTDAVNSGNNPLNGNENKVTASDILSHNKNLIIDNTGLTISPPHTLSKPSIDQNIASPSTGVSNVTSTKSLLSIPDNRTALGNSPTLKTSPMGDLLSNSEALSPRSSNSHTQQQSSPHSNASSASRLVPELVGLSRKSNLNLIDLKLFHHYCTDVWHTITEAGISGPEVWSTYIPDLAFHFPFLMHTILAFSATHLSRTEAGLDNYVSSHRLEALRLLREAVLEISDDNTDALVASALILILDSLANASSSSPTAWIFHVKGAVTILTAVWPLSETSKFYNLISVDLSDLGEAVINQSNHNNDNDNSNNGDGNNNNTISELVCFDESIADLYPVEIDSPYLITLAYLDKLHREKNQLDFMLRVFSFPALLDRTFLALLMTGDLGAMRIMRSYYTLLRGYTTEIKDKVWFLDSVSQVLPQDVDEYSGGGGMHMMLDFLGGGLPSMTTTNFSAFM
Test: PBM E-score (8-mer binding enrichment) (E-score (-0.5 to 0.5)); higher = stronger / more preferred TF binding; most listed sequences are background and not binding sites
Settings: protein concentration: 200 nM; construct: GST-full length
Summary of the method: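 Yeast transcription factors carrying a GST tag, as full-length proteins or DNA-binding domains, were produced by PURExpress in vitro transcription/translation. About 100-200 nM protein was applied to universal all-10-mer Agilent arrays, double-stranded by primer extension on fresh or once-stripped slides. Bound protein was detected with fluorescent anti-GST, and scans were normalised with masliner. The Universal PBM Analysis Suite gave each ungapped eight-base word, pooled with its reverse complement, an E-score, a modified Wilcoxon-Mann-Whitney statistic.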

Row | Sequence | PBM E-score
1 | AATCGAGG | 0.0537
2 | AATGTCTG | -0.0966
3 | AATAGAGT | -0.0278
4 | CAAGTGAG | -0.224
5 | CAATGTAA | 0.0818
6 | TAAAACGA | 0.362
7 | ATGTACCC | -0.151
8 | ACAACCAG | -0.0366
9 | CAAGAGGG | -0.262
10 | ACCACCCG | -0.112
11 | AACGTATG | 0.207
12 | TACGGGAA | 0.356
13 | AGGAGTTA | -0.0226
14 | CGGGAGAA | -0.0353
15 | AGGGCTAT | -0.384
16 | ACCTAGTC | -0.109
17 | CCTCATGA | -0.0913
18 | TCACATCA | -0.104
19 | GACCACCC | -0.188
20 | ATCCGTTG | 0.0365
21 | TACACGAA | 0.31
22 | ATGGATGA | -0.0351
23 | AAGCCTTG | 0.0277
24 | ACGTAAGT | 0.0968

Row | Sequence | PBM E-score
25 | CCTATCCA | -0.284
26 | ACCTTGAA | -0.0857
27 | CCGGAGCC | 0.0458
28 | GCCTGGCC | -0.178
29 | ATACGATA | 0.458
30 | GACTATGC | 0.16
31 | ACTATGAC | -0.108
32 | ATTTGTCG | 0.155
33 | AAATTACG | 0.126
34 | ACGAACTG | 0.289
35 | AGGGATGC | -0.223
36 | TCATATCA | -0.0529
37 | CCATCCAC | -0.202
38 | AACTGATC | 0.04
39 | CCGCAACG | 0.377
40 | ATTATCAA | 0.0606
41 | ATAGGGTG | -0.2
42 | GTTGGATA | -0.123
43 | AGTCATCC | -0.121
44 | CATAAGGA | -0.0351
45 | GCGCGTAC | 0.261
46 | CAGCCCGG | -0.117
47 | CCCATCGG | 0.0599
48 | AGGCTCTA | -0.167

Row | Sequence | PBM E-score
49 | ACTCTTGG | -0.0829
50 | CTCCGACA | -0.0109
51 | TCAAGAGA | -0.0131
52 | ATCGCTCC | 0.185
53 | CACTACCC | -0.281
54 | ACGACATC | 0.355
55 | ACTGGCGA | -0.125
56 | AATGGAAG | -0.052
57 | CTGCCGAA | 0.0241
58 | CCTGGAAG | -0.318
59 | ACACCGAG | 0.0852
60 | CAGGATCG | 0.17
61 | AAAGAGAG | -0.123
62 | ACTAGCGC | -0.12
63 | CCCGGAAA | -0.056
64 | ACTAATCA | 0.0133
65 | CAATTTCG | 0.0809
66 | GCGCGCAA | 0.122
67 | ACAAGGAA | 0.126
68 | CTACTATA | 0.0369
69 | AAGTTGGT | 0.0141
70 | ACAATCCC | -0.0294
71 | CAAGTGTA | -0.183
72 | CTATGTGC | -0.144

Row | Sequence | PBM E-score
73 | AGTCGTGA | 0.0257
74 | CGGGCGAC | -0.183
75 | AGCATGCG | -0.00866
76 | CCGGTCTC | -0.113
77 | ACTAGAGA | -0.157
78 | AGTACTCA | -0.122
79 | GTACCGGA | 0.265
80 | CCGGGATA | 0.123
81 | CGCCGTCC | -0.0471
82 | GGGGGTTA | -0.298
83 | GACCATAC | 0.0838
84 | GGCGACCC | -0.138
85 | CGTATTGC | 0.181
86 | ACGTTGGC | -0.113
87 | GGGGTTAC | 0.0772
88 | CTTGGACC | -0.134
89 | AGCAGAAC | 0.177
90 | CGGGAATA | 0.0624
91 | ACCTTCCC | -0.107
92 | CTAGCACC | -0.156
93 | GACTGGTA | 0.0633
94 | AGCACTTG | -0.0389
